# In the supplement of paper PMC12217912:
# This is one part of the list. The full chains were built here from the parent and the listed change. Inactive controls read about 0.05.
# B1: TEV protease; numbered along this chain (parent)
# chain: MGESLFKGPRDYNPISSSICHLTNESDGHTTSLYGIGFGPFIITNKHLFRRNNGTLVVQSLHGVFKVKDTTTLQQHLVDGRDMIIIRMPKDFPPFPQKLKFREPQREERICLVTTNFQTKSMSSMVSDTSCTFPSGDGIFWKHWIQTKDGQCGSPLVSTRDGFIVGIHSASNFTNTNNYFTSVPKNFMELLTNQEAQQWVSGWRLNADSVLWGGHKVFMVKPEEPFQPVKEATQL
# Variants of: B1
# Assay: raw area under fraction-flipped curve 0-4 h after induction (AUC4h, not background-subtracted), DNA-recorder readout of cleavage of the substrate (dimensionless); higher = more cleavage of the substrate by the protease variant
# Details: temperature: 34 °C; time window: 0-4 h after rhamnose induction
# Method: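 In vivo DNA recorder in E. coli TOP10(DE3) ΔrhaA at 34 °C. Each TEVp single-site mutant (parent TEVp 0) is paired with a single-site variant of the 7-mer TEVs (canonical ENLYFQ|S). The substrate sits between flexible linkers in a Bxb1-sfGFP-TEVs-SsrA fusion, so cleavage stabilises Bxb1 and speeds flipping of a recombination array, read by NGS. The value is the raw area under the fraction-flipped curve over 0-4 h after rhamnose induction (AUC4h), with ≥20 reads per time point. It is not background-subtracted; inactive controls average about 0.047.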
# 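Further: Bxb1 expression induced with 0.2% (w/v) L-rhamnose at OD600 near 0.5, cultures sampled hourly, flipped fraction per protease–substrate barcode pair counted by paired-end Illumina sequencing.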
Variant,area with substrate ENLYAQS,area with substrate ENLYDQS,area with substrate ENLYEQS,area with substrate ENLYGQS,area with substrate ENLYHQS,area with substrate ENLYKQS,area with substrate ENLYMQS,area with substrate ENLYPQS,area with substrate ENLYQQS,area with substrate ENLYSQS,area with substrate ENLYVQS,area with substrate ENLYIQS,area with substrate ENLYNQS,area with substrate ENLYRQS,area with substrate ENLYWQS,area with substrate ENLYYQS,area with substrate ENLYCQS,area with substrate ENLYLQS,area with substrate ENLYTQS
MGESLFKGPRDYNPISSSICHLTNESDGHTTSLYGIGFGPFIITNKHLFRRNNGTLVVQKLHGVFKVKDTTTLQQHLVDGRDMIIIRMPKDFPPFPQKLKFREPQREERICLVTTNFQTKSMSSMVSDTSCTFPSGDGIFWKHWIQTKDGQCGSPLVSTRDGFIVGIHSASNFTNTNNYFTSVPKNFMELLTNQEAQQWVSGWRLNADSVLWGGHKVFMVKPEEPFQPVKEATQL [S60K],0.0641,0.0376,0.0522,0.0687,0.0529,0.0146,0.0668,0.0601,0.057,0.0684,0.102,,,,,,,,
MGESLFKGPRDYNPISSSICHLTNESDGHTTSLYGIGFGPFIITNKHLFRRNNGTLVVQSLHGVFKVKDTTTLQQHLPDGRDMIIIRMPKDFPPFPQKLKFREPQREERICLVTTNFQTKSMSSMVSDTSCTFPSGDGIFWKHWIQTKDGQCGSPLVSTRDGFIVGIHSASNFTNTNNYFTSVPKNFMELLTNQEAQQWVSGWRLNADSVLWGGHKVFMVKPEEPFQPVKEATQL [V78P],0.0689,0.0639,,0.0657,0.0611,0.0629,0.0688,0.0522,0.05,,0.0875,0.073,0.0606,0.0451,0.0531,0.0747,,,
MGESLFKGPRDYNPISSSICHLTNESDGHTTSLYGIGFGPFIITNKHLFRRNNGTLVVQSLHGVFKVKDTTTLQQHLYDGRDMIIIRMPKDFPPFPQKLKFREPQREERICLVTTNFQTKSMSSMVSDTSCTFPSGDGIFWKHWIQTKDGQCGSPLVSTRDGFIVGIHSASNFTNTNNYFTSVPKNFMELLTNQEAQQWVSGWRLNADSVLWGGHKVFMVKPEEPFQPVKEATQL [V78Y],0.061,0.0619,0.0599,0.059,0.0739,0.0657,0.0273,0.0566,0.0533,,0.0668,0.0784,,0.0708,0.0685,0.0491,0.0771,,
MGESLFKGPRDYNPISSSICHLTNESDGHTTSLYGIGFGPFIITNKHLFRRNNGTLVVQSLHGVFKVKDTTTIQQHLVDGRDMIIIRMPKDFPPFPQKLKFREPQREERICLVTTNFQTKSMSSMVSDTSCTFPSGDGIFWKHWIQTKDGQCGSPLVSTRDGFIVGIHSASNFTNTNNYFTSVPKNFMELLTNQEAQQWVSGWRLNADSVLWGGHKVFMVKPEEPFQPVKEATQL [L73I],0.0917,0.059,0.0748,0.071,0.0722,0.0639,,0.0675,0.0761,0.0847,0.15,0.114,0.0752,0.0719,0.0758,0.0979,,0.11,0.107
MGESLFKGPRDYNPISSSICHLTNESDGHTTSLYGIGFGPFIITNKHLFRRNNGTLVVQSLHGVFKVKDTTTLQQHLVDGRDDIIIRMPKDFPPFPQKLKFREPQREERICLVTTNFQTKSMSSMVSDTSCTFPSGDGIFWKHWIQTKDGQCGSPLVSTRDGFIVGIHSASNFTNTNNYFTSVPKNFMELLTNQEAQQWVSGWRLNADSVLWGGHKVFMVKPEEPFQPVKEATQL [M83D],0.0434,0.0459,0.045,0.0447,0.052,,0.0416,0.0507,0.0586,0.0516,0.0521,0.0515,0.051,0.0607,0.0483,,0.0511,0.0601,0.0519
MGESLFKGPRDYNPISSSICHLTNESDGHTTSLYGIGFGPFIITNKHLFRRNNGTLVVQSLHGVFKVKDTTTLQQHLVDGRDMEIIRMPKDFPPFPQKLKFREPQREERICLVTTNFQTKSMSSMVSDTSCTFPSGDGIFWKHWIQTKDGQCGSPLVSTRDGFIVGIHSASNFTNTNNYFTSVPKNFMELLTNQEAQQWVSGWRLNADSVLWGGHKVFMVKPEEPFQPVKEATQL [I84E],0.0387,0.0536,0.0563,0.0594,0.0544,0.0592,0.0564,0.0463,0.0576,0.0575,0.0659,0.0541,0.0604,0.0567,0.0545,0.0484,0.0557,,
MGESLFKGPRDYNPISSSICHLTNESDGHTTSLYGIGFGPFIITNKHLFRRNNVTLVVQSLHGVFKVKDTTTLQQHLVDGRDMIIIRMPKDFPPFPQKLKFREPQREERICLVTTNFQTKSMSSMVSDTSCTFPSGDGIFWKHWIQTKDGQCGSPLVSTRDGFIVGIHSASNFTNTNNYFTSVPKNFMELLTNQEAQQWVSGWRLNADSVLWGGHKVFMVKPEEPFQPVKEATQL [G54V],0.0652,0.05,0.0589,,0.0577,0.0586,0.0739,0.0533,0.0593,0.0648,,0.0752,0.0438,0.0615,0.0638,,0.0744,0.0547,
MGESLFKGPRDYNPISSSICHLTNESDGHTTSLYGIGFGPFIITNKHLFRRNNGTLVVQSLHGVFKVKDTTTLQQHLVDGRDMIIVRMPKDFPPFPQKLKFREPQREERICLVTTNFQTKSMSSMVSDTSCTFPSGDGIFWKHWIQTKDGQCGSPLVSTRDGFIVGIHSASNFTNTNNYFTSVPKNFMELLTNQEAQQWVSGWRLNADSVLWGGHKVFMVKPEEPFQPVKEATQL [I86V],0.0859,0.0672,0.0821,0.0603,0.0749,,,0.0757,0.0606,,0.106,0.116,0.0704,0.0623,0.0705,0.0715,,0.082,0.089
MGESLFKGPRDYNPISSSICHLTNESDGHTTSLYGIGFGPFIITNKHLFRRNNGTLVVISLHGVFKVKDTTTLQQHLVDGRDMIIIRMPKDFPPFPQKLKFREPQREERICLVTTNFQTKSMSSMVSDTSCTFPSGDGIFWKHWIQTKDGQCGSPLVSTRDGFIVGIHSASNFTNTNNYFTSVPKNFMELLTNQEAQQWVSGWRLNADSVLWGGHKVFMVKPEEPFQPVKEATQL [Q59I],0.0464,,,0.0579,0.0822,0.0828,0.0977,0.0719,,,0.11,0.126,0.0547,,0.07,0.0542,,0.0885,0.0875
